Tests used:
[1] = target: T1, EGFR on EGFR and cMET co-expressed tumor cell lines (UniProt P00533); assay: flow cytometry, A431 cells (co-express EGFR and cMET; both arms contribute)
T1 construct: whole, on cells

[2] = target: T2, cMET on EGFR and cMET co-expressed tumor cell lines (UniProt P08581); assay: as above
T2 construct: whole, on cells

Human EGFR = target: T3, Human EGFR (human, UniProt P00533); assay: ELISA, coated human EGFR, anti-human Fc-HRP
T3 construct: recombinant protein; also called human EGFR recombinant protein

[3] = target: T1, EGFR on EGFR and cMET co-expressed …; assay: flow cytometry, HT-29 cells (co-express EGFR and cMET; both arms contribute)
[4] = target: T2, cMET on EGFR and cMET co-expressed …; assay: as above
[5] = target: T1, EGFR on EGFR and cMET co-expressed …; assay: flow cytometry, SW620 cells (named among the EGFR and cMET co-expressing lines; both arms contribute)
[6] = target: T2, cMET on EGFR and cMET co-expressed …; assay: as above
[7] = target: T4, human HER4 recombinant protein (human, UniProt Q15303 26-649, limits assumed); assay: ELISA, coated human HER4, anti-human Fc-HRP
T4 sequence (looked up): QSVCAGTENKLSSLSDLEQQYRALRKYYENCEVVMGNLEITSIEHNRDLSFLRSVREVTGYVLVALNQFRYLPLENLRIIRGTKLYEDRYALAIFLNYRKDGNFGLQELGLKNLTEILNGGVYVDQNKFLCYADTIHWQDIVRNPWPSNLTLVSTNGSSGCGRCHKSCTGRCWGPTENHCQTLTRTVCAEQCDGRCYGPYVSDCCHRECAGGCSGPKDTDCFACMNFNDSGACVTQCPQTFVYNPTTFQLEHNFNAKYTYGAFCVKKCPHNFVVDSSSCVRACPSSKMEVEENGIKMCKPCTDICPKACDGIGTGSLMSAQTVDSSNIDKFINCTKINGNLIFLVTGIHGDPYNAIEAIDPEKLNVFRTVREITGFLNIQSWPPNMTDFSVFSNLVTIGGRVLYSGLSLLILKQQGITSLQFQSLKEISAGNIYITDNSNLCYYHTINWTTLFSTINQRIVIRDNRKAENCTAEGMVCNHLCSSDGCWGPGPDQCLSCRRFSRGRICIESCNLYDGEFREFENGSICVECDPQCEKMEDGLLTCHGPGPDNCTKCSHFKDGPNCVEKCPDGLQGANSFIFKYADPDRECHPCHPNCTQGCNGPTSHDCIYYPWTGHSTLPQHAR

[8] = target: T1, EGFR on EGFR and cMET co-expressed …; assay: flow cytometry, CAL-27 cells (co-express EGFR and cMET; both arms contribute)
[9] = target: T2, cMET on EGFR and cMET co-expressed …; assay: as above
[10] = target: T1, EGFR on EGFR and cMET co-expressed …; assay: flow cytometry, MKN-45 cells (co-express EGFR and cMET; both arms contribute)
[11] = target: T2, cMET on EGFR and cMET co-expressed …; assay: as above
[12] = target: T5, human Sema3A recombinant protein (human, UniProt Q14563 21-771, limits assumed); assay: ELISA, coated human Sema3A, anti-human Fc-HRP
T5 sequence (looked up): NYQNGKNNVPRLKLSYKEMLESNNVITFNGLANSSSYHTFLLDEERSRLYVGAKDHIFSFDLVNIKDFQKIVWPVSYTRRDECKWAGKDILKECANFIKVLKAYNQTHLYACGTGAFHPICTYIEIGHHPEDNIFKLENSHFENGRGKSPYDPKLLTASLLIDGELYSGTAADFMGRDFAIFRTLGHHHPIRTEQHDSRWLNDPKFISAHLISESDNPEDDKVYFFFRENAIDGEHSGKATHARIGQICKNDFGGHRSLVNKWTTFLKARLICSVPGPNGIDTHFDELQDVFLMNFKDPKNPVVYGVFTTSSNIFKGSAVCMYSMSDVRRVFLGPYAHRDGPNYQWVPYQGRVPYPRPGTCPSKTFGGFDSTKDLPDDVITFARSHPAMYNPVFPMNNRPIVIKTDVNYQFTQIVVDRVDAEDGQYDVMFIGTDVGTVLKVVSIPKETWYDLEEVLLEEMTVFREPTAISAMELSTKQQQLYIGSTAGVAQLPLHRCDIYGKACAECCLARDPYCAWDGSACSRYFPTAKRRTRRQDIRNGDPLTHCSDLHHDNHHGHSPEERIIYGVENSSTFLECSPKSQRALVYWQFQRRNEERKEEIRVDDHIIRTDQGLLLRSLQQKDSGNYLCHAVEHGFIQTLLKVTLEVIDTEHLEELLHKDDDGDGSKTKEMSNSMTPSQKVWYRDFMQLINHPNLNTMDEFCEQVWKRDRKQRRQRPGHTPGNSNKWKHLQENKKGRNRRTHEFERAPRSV

Human cMET = target: T6, Human cMET (human); assay: ELISA, coated human cMET, anti-human Fc-HRP
Human cMET, sequence (P08581 whole entry): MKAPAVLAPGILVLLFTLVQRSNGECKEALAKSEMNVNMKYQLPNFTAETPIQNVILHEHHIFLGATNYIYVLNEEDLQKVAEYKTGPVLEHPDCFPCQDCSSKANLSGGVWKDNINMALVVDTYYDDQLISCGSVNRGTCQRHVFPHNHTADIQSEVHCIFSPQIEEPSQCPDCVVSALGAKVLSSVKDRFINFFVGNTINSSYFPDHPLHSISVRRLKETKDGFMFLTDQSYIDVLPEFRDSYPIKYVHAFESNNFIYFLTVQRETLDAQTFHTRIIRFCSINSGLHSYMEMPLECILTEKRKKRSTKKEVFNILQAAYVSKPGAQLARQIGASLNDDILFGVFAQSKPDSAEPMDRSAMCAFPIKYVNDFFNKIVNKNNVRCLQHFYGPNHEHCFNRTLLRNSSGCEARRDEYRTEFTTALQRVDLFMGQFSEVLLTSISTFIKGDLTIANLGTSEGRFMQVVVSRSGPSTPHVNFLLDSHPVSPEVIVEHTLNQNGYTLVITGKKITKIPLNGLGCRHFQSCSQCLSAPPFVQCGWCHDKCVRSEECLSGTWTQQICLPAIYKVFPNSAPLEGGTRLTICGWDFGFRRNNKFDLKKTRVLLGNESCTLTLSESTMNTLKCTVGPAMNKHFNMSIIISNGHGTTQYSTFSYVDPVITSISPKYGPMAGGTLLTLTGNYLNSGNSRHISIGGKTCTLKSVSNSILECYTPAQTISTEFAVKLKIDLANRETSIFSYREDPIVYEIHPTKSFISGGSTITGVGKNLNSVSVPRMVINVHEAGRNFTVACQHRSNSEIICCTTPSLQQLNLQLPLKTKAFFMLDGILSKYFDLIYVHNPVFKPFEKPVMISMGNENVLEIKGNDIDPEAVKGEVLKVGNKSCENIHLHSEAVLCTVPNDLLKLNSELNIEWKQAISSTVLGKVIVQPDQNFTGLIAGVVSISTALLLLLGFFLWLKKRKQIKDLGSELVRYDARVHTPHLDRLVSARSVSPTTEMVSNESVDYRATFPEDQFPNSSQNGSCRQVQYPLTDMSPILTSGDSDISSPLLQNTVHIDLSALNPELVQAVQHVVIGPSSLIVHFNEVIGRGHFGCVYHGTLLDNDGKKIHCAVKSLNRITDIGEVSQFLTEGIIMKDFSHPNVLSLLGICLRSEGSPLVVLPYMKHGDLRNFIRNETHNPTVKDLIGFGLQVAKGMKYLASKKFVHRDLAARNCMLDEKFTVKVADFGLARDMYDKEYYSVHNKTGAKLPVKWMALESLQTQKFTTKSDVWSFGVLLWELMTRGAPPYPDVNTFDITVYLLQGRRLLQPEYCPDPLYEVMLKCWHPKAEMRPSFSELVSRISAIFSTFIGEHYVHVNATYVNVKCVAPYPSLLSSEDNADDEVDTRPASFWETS
T6 construct: recombinant protein; also called human cMET recombinant protein

[13] = target: T1, EGFR on EGFR and cMET co-expressed …; assay: flow cytometry, SNU-5 cells (co-express EGFR and cMET; both arms contribute)
[14] = target: T2, cMET on EGFR and cMET co-expressed …; assay: as above
[15] = target: T1, EGFR on EGFR and cMET co-expressed …; assay: flow cytometry, EBC-1 cells (co-express EGFR and cMET; both arms contribute)
[16] = target: T2, cMET on EGFR and cMET co-expressed …; assay: as above
[17] = target: T1, EGFR on EGFR and cMET co-expressed …; assay: flow cytometry, KYSE-30 cells (co-express EGFR and cMET; both arms contribute)
[18] = target: T2, cMET on EGFR and cMET co-expressed …; assay: as above
[19] = target: human HER3 recombinant protein (human, UniProt P21860 partial chain); assay: ELISA, coated human HER3, anti-human Fc-HRP

EC50 (read off the curve) [1]: ~4 nM | EC50 (read off the curve) [2]: ~4 nM | EC50 (read off the curve) (Human EGFR): ~0.5 nM | EC50 (read off the curve) [3]: ~2 nM | EC50 (read off the curve) [4]: ~2 nM | EC50 (read off the curve) [5]: ~0.9 nM | EC50 (read off the curve) [6]: ~0.9 nM | binding result [7]: no binding (tested: about 130 nM) | EC50 (read off the curve) [8]: ~4 nM | EC50 (read off the curve) [9]: ~4 nM | EC50 (read off the curve) [10]: ~7 nM | EC50 (read off the curve) [11]: ~7 nM | binding result [12]: no binding (tested: about 120 nM) | EC50 (read off the curve) (Human cMET): ~2 nM | EC50 (read off the curve) [13]: ~3 nM | EC50 (read off the curve) [14]: ~3 nM | EC50 (read off the curve) [15]: ~3 nM | EC50 (read off the curve) [16]: ~3 nM | EC50 (read off the curve) [17]: ~6 nM | EC50 (read off the curve) [18]: ~6 nM | binding result [19]: no binding (tested: about 130 nM)
B1: Bsab 67-LD038 (8) (bispecific antibody, human IgG1, kappa, L234A L235A)
chain 1: AIQLTQSPESLSASVGDRVTITCRASQDISSALVWYQQKPGKAPKLLIYDASSLESGVPDRFSGSESGTDFTLTISSLQPEDFATYYCQQFNSYPLTFGGGTKVEIKRTVAAPSVFIFPPSDEQLKSGTASVVCLLNNFYPREAKVQWKVDNALQSGNSQESVTEQDSKDSTYSLSSTLTLSKADYEKHKVYACEVTHQGLSSPVTKSFNRGECGGGGSGGGGSGGGGSGGGGSGGGGSGGGGSGGGGSGGGGSQVQLVESGGGVVQPGRSLRLSCAASGFTFSTYGMHWVRQAPGQGLEWVAVIWDDGSYKYYGDSVKGRFTISRDNSKNTLYLQMNSLRAEDTAVYYCARDGITMVRGVMKDYFDYWGQGTLVTVSSASTKGPSVFPLAPSSKSTSGGTAALGCLVKDYFPEPVTVSWNSGALTSGVHTFPAVLQSSGLYSLSSVVTVPSSSLGTQTYICNVNHKPSNTKVDKKV[omitted - human IgG1 Fc with L234A L235A Y349C T366W (EU numbers)]
chain 2: DIVMTQSPDSLAVSLGERATINCKSSESVDSYANSFLHWYQQKPGQPPKLLIYRASTRESGVPDRFSGSGSGTDFTLTISSLQAEDVAVYYCQQSKEDPLTFGGGTKVEIKRTVAAPSVFIFPPSDEQLKSGTASVVCLLNNFYPREAKVQWKVDNALQSGNSQESVTEQDSKDSTYSLSSTLTLSKADYEKHKVYACEVTHQGLSSPVTKSFNRGECGGGGSGGGGSGGGGSGGGGSGGGGSGGGGSGGGGSGGGGSQVQLVQSGAEVKKPGASVKVSCKASGYIFTAYTMHWVRQAPGQGLEWMGWIKPNNGLANYAQKFQGRVTMTRDTSISTAYMELSRLRSDDTAVYYCARSEITTEFDYWGQGTLVTVSSASTKGPSVFPLAPSSKSTSGGTAALGCLVKDYFPEPVTVSWNSGALTSGVHTFPAVLQSSGLYSLSSVVTVPSSSLGTQTYICNVNHKPSNTKVDKKVEPKSCDKTHTCPPCPAPEAAGGPSVFLFPPKPKDTLMISRTPEVTCVVVDVSHEDPEVKFNWYVDGVEVHNAKTKPREEQYNSTYRVVSVLTVLHQDWLNGKEYKCKVSNKALPAPIEKTISKAKGQPREPQVYTLPPCRDELTKNQVSLSCAVKGFYPSDIAVEWESNGQPENNYKTTPPVLDSDGSFFLVSKLTVDKSRWQQGNVFSCSVMHEALHNHYTQKSLSLSPGK
modifications: LD038 drug-linker coupled after TCEP reduction; DAR 8.1 by LC-MS; sites not given
notes: also called Basb 67-LD038 (8)

Source: patent publication US20250381289A1 (Genmab, published 2025)
